Measured values from PMC13022133.
Numbering of substitutions follows the chain as printed. No constants are given. Whether binding was seen depends on the method and setting. Binding seen in cells or lysates may run through a third protein. Some entries that bind do so weakly or less than the wild type. For part of these data: Sequences can lack the tags named with a protein. Values belong to the binder of their own block, whether it stands above or below them.

Experiments:
[1] = target: T1, myc-PLK4 (Polo-like kinase 4), tetracycline-inducible in U2OS cells (UniProt O00444); test: co-IP; U2OS cells with tetracycline-induced myc-PLK4, transfected with GFP-McIdas or GFP alone; IP with anti-myc on Protein A agarose; same lysis buffer
T1 sequence: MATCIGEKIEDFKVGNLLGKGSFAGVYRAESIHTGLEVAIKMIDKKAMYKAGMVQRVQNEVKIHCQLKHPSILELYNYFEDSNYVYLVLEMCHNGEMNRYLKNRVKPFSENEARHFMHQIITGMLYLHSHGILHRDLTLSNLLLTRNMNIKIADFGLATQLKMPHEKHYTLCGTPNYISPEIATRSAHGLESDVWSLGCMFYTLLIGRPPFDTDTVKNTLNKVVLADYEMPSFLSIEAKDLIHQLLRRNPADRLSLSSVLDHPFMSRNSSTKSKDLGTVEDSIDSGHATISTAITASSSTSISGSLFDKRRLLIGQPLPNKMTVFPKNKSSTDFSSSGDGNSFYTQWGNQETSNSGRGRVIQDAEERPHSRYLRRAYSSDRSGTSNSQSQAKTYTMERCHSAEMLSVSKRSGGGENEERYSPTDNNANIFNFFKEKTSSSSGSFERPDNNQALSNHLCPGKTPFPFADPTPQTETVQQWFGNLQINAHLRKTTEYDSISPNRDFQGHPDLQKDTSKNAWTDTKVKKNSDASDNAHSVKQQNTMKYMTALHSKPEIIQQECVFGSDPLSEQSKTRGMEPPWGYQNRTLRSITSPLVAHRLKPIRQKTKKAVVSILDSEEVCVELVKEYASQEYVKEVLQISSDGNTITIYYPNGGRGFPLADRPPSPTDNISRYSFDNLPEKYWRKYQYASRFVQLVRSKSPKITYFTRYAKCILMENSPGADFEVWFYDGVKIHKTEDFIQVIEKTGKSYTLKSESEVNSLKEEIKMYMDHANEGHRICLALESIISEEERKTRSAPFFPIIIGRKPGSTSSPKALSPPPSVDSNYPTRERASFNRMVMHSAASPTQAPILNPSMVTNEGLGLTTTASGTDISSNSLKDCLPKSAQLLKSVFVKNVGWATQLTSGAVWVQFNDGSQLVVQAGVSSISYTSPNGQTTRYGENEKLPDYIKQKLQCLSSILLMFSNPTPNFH

[2] = target: T2, HA-STIL (SCL/TAL1 interrupting locus protein) (UniProt Q15468); test: co-IP; HEK 293T cells co-transfected with HA-STIL and GFP-McIdas or GFP alone, or with SAS6-GFP (tetracycline-dependent promoter) and McIdas-HA or HA alone; IP with anti-HA on Protein A agarose
T2 sequence: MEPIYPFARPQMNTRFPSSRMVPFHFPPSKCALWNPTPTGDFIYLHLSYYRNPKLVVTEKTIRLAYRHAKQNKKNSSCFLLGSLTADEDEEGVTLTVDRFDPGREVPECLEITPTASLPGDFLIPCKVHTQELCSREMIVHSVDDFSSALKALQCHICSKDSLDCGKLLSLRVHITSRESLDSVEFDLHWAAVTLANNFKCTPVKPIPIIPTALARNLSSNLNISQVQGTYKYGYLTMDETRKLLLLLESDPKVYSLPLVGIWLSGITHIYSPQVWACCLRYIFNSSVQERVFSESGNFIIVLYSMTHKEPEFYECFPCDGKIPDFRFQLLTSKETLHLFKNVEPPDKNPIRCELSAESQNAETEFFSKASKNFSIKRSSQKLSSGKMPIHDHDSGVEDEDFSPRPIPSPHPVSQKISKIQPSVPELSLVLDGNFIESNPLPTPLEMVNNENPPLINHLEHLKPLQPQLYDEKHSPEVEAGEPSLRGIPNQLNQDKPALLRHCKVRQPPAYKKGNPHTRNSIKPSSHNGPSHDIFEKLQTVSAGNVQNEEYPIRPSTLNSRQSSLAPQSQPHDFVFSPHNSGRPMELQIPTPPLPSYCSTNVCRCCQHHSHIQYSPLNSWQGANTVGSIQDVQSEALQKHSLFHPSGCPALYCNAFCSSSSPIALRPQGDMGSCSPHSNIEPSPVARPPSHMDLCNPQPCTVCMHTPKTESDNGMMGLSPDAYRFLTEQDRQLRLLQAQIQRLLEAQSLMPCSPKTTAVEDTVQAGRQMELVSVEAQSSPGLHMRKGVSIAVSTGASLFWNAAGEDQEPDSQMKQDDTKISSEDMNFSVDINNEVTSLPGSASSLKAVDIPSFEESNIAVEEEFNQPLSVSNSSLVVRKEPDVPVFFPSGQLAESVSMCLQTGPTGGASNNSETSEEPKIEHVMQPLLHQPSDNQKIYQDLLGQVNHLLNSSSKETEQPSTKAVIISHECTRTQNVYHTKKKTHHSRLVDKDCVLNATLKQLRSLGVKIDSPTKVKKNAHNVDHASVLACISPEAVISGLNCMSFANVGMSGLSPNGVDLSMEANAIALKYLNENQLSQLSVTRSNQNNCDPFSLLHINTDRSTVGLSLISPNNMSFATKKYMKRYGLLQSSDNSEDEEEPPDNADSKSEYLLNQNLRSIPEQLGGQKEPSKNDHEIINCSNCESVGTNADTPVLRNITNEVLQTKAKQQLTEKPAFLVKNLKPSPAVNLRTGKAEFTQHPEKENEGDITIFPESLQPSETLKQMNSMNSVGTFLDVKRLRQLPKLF

[3] = target: T3, GFP-McIdas 10D (phospho-mimetic mutant) (not stated (human or mouse cDNA cloned)) (UniProt D6RGH6); test: co-IP; U2OS cells with tetracycline-induced myc-PLK4, transfected with GFP-McIdas (WT, 10A or 10D) or GFP alone; IP with anti-GFP on Protein A agarose, 3 h at 4 °C; lysis buffer 50 mM Tris-HCl pH 8.2, 150 mM NaCl, 5 mM EDTA, 5 mM MgCl2, 0.5% Triton X-100; also after 100 nM centrinone or DMSO (no effect on the interaction)
T3 sequence: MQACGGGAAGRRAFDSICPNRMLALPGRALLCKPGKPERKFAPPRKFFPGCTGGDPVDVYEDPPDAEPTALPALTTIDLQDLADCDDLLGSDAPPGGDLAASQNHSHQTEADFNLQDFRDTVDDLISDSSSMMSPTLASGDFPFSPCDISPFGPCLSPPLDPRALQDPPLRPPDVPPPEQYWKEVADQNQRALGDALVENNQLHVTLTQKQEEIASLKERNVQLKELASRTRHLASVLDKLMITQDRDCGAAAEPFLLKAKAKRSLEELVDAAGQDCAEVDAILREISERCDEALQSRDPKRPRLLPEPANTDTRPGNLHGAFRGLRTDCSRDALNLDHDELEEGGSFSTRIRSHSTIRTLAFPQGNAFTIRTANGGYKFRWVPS

[4] = target: T4, GFP-McIdas 10A (phospho-dead mutant) (not stated (human or mouse cDNA cloned)) (UniProt D6RGH6); test: as above
T4 sequence: T3 sequence with D55A, D58A, D86A, D87A, D167A, D246A, D271A, D333A, D338A, D340A

[5] = target: T5, GFP-tagged McIdas (GFP-McIdas WT), expressed in U2OS myc-PLK4 cells (not stated (human or mouse cDNA cloned)) (UniProt D6RGH6); test: as above
T5 sequence: T3 sequence with D55S, D58S, D86S, D87S, D167S, D246S, D271S, D333S, D338S, D340S

[6] = target: T6, endogenous McIdas (U2OS cells) (human (endogenous in U2OS)) (UniProt D6RGH6); test: co-IP; total U2OS cell extracts, endogenous proteins; IP with anti-McIdas antibody, IgG IP as control; western blot
T6 sequence: T3 sequence with D55S, D58S, D86S, D87S, D167S, D246S, D271S, D333S, D338S, D340S

B3: myc-PLK4 (Polo-like kinase 4), tetracycline-inducible in U2OS cells (enzyme, UniProt O00444 1-970)
chain: T1 sequence
binding [3]: binds | binding [4]: binds | binding [5]: binds

B4: endogenous PLK4 (U2OS cells) (enzyme, UniProt O00444 1-970)
chain: T1 sequence
binding [6]: binds

Second part, the binder after the results:

binding [1]: binds
B1: GFP-tagged McIdas (GFP-McIdas WT), expressed in U2OS myc-PLK4 cells (protein, UniProt D6RGH6 1-385)
chain: T3 sequence with D55S, D58S, D86S, D87S, D167S, D246S, D271S, D333S, D338S, D340S

binding [2]: no binding
B2: GFP-tagged McIdas (GFP-McIdas), expressed in HEK 293T cells (protein, UniProt D6RGH6 1-385)
chain: T3 sequence with D55S, D58S, D86S, D87S, D167S, D246S, D271S, D333S, D338S, D340S
